Here are results for 84 compounds from PubChem BioAssay AID1346428 (National Center for Advancing Translational Sciences (NCATS), 2018).

Hit rate of the full screen: of about 48,000 compounds, about 1,200 (2.5%) were called active. Another 2% or so got no clear call; they are omitted.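 How the source made its calls: active means activation of at least 60% and not above a set upper limit (about 1 call in 100 departs from these limits); inconclusive means activation of 40% to 60%, or above that upper limit; inactive means activation under 40%.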 Some of the results follow.

The target in this experiment is Probable G-protein coupled receptor 32 (Homo sapiens) (UniProt O75388). Kind of experiment: qHTS for Agonists of Human Resolvin D1 Receptor DRV1. Further: 0% is about no effect. The following applies: CHO-K1 GPR32 beta-arrestin PathHunter luminescence, 90 min; at 76.9 µM; hits give high values; zero percent set by DMSO-only wells. In short, it runs like this: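 Engineered CHO-K1 line co-expressing GPR32-ProLink and EA-beta-arrestin. Compound treatment lasted 90 min at 37 °C. Luminescence was recorded after 1 h with substrate at ambient temperature, relative to DMSO basal wells.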
UniProt O75388, sequence (O75388 whole entry, looked up): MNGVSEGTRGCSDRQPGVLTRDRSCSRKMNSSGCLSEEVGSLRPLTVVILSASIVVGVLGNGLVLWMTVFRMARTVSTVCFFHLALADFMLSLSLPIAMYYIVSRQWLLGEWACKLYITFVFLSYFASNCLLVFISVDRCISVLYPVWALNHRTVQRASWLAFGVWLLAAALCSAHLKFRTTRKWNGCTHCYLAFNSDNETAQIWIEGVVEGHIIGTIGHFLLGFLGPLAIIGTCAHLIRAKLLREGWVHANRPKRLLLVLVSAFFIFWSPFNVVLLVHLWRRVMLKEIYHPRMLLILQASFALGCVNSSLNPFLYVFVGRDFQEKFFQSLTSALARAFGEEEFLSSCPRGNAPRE
(qHTS replaces the single test concentration by a dilution series.)
As for `Cc1ccc(OCc2nc(-c3ccc(C(=O)NCc4ccc(OC(C)C)cc4)cc3)oc2C)cc1`, the activation is inactive: 11.8%.

As for `Cc1cccn2c(=O)c(C(=O)NC(C)c3ccccc3)cnc12` (centres undefined), the activation was inactive: -16.4%.

Regarding `CCOc1ccc(N(C)S(=O)(=O)c2ccc3[nH]cc(C(=O)NCc4ccccc4)c(=O)c3c2)cc1`, the activation was inactive: 0.122%.

As for `Cc1nc2scc(C)n2c(=O)c1S(=O)(=O)NCCc1ccccc1`, the activation is inactive: -0.243%.

As to `COc1ccc(Nc2oc(-c3ccc(COc4ccccc4C)o3)nc2C#N)cc1`, the activation was inactive: -19.7%.

Turning to `Cc1cc(C)c(NC(=O)C(C)n2nnc3sc4c(c3c2=O)CCCC4)c(C)c1` (centres undefined), the activation is inactive: -8.98%.

Take `Cc1cc(C)cc(N2C(=O)N(Cc3cccc(F)c3)c3ccccc3S2(=O)=O)c1`: the activation was inactive: -14.6%.

Consider `COc1ccc(N2CCN(C(=O)CSc3n[nH]c(-c4ccccc4Cl)n3)CC2)cc1`, for which the activation was inactive: -10.9%.

`Cc1ccc(C(=O)c2cn(Cc3ccc(Cl)cc3)c3nc(C)ccc3c2=O)cc1`: the activation was inactive: -3.52%.

On to `Cc1ccc(CNC(=O)c2cc(-c3ccc(Cl)cc3)on2)cc1`, for which the activation was inactive: 4.98%.

In the case of `CCN1CCN(c2ncc3c(n2)CC(c2ccccc2O)CC3=O)CC1` (centres undefined), the activation is inactive: 3.94%.

On to `CCc1ccccc1NC(=O)Nc1nnc(N(CC)c2ccccc2)s1`, for which the activation was inactive: 5.21%.

With `Cc1cc(NC(=O)CN2C(=O)c3cccnc3Sc3ccccc32)ccc1Br`, the activation was inactive: -8.15%.

On to `COc1ccc(OC)c2sc(N(Cc3cccnc3)C(=O)c3ccco3)nc12`, for which the activation was inactive: -16.3%.

Turning to `CN(C)c1ccc(CNC(=O)CN2CCSc3ccc(S(=O)(=O)N(C)C)cc32)cc1`, the activation was inactive: -4.7%.

Consider `Cc1ccc2oc(=O)c(S(=O)(=O)c3ccc(C(C)(C)C)cc3)cc2c1`, for which the activation was inactive: 15.2%.

Take `CCN(c1ccccc1)S(=O)(=O)c1nnc(NC(=O)COc2cccc(C)c2)s1`: the activation is inactive: 3.3%.

In the case of `Cc1ccc(NC(=O)C2CCN(c3nn4cc(-c5ccc(C)cc5)nc4s3)CC2)cc1`, the activation was inactive: -5.38%.

As for `CCCCCn1c(=O)[nH]c2cc(C(=O)N3CCN(c4cccc(C(F)(F)F)c4)CC3)ccc2c1=O`, the activation is active: 60.8%.

For the compound `Cc1ccc(CNC(=O)CNS(=O)(=O)c2cccs2)cc1`, the activation was inactive: 25.8%.

For `CCOc1ccc(NC(=O)Cn2c(=O)n(CC(=O)NCc3ccccc3Cl)c(=O)c3sccc32)cc1`, the activation is inactive: 11.1%.

As to `COc1ccc(CNC(=O)c2oc3c(c2C)-c2nn(Cc4ccc(Cl)cc4)cc2CC3)cc1`, the activation was inactive: 10.1%.

For the compound `CC(C)(C)c1ccc(C(=O)Nc2sc3c(c2C#N)CCC(C(C)(C)C)C3)cc1` (centres undefined), the activation was inactive: -1.92%.

For the compound `O=C(Nc1ccc(Br)cc1)C1CCCN1S(=O)(=O)c1ccc(F)cc1` (centres undefined), the activation was inactive: -4.39%.

In the case of `CCN(CCCNC(=O)Cn1ncc2c3ccccc3n(C)c2c1=O)Cc1ccccc1`, the activation is inactive: -3.31%.

Take `CCCSc1ncc(Cl)c(C(=O)Nc2ccc(S(=O)(=O)N(C)c3ccccc3)cc2)n1`: the activation was inactive: -22.5%.

`CCCCC/C=C\CC(O)/C=C/c1cccc(CC(O)CCCCO)n1` (centres undefined): the activation was inactive: -7.65%.

As to `COC(=O)c1ccc(C2c3c(-c4ccccc4O)n[nH]c3C(=O)N2Cc2cccnc2)cc1` (centres undefined), the activation is inactive: -17.2%.

`COc1ccc(Cn2c(C(=O)O)c(CNCc3ccccc3F)c3ccc(OC)cc32)cc1`: the activation is inactive: -4.6%.

`COc1cccc(C2C(C(=O)Nc3ccc(C)cc3C)=C(C)Nc3c(C(=O)Nc4ccccc4)cnn32)c1` (centres undefined): the activation was inactive: -17.1%.

Regarding `O=C(Nc1nnc(S(=O)(=O)N2CCCc3ccccc32)s1)c1cccc(Cl)c1`, the activation was active: 73.8%.

With `CCc1ccc(NC(=O)CSc2nc(=O)n(Cc3ccccn3)c3c2CCC3)cc1`, the activation was inactive: 0.0906%.

Regarding `CC1CCCN(C(=O)CSc2c3c(nc4cc(Cl)ccc24)CCCC3)C1` (centres undefined), the activation is inactive: -9.01%.

On to `O=C(Nc1cc(-c2nc3cc(Cl)ccc3o2)ccc1Cl)c1ccco1`, for which the activation is inactive: 11.4%.

As for `NS(=O)(=O)c1cc(C(=O)O)c(NCc2ccco2)cc1Cl`, the activation is inactive: -4.65%.

Regarding `CCc1cccc(C)c1NS(=O)(=O)c1c(C(=O)N2CCC(C)CC2)c(C)n(C)c1C`, the activation is inactive: -17.9%.

As to `COc1ccc(S(=O)(=O)N2CCC(C(=O)Nc3ccc(Oc4ccccc4)cc3)CC2)cc1`, the activation was inactive: -3.93%.

As for `Oc1ccc(Cl)cc1Cc1cc(Cl)ccc1O`, the activation is active: 69%.

As to `COc1ccc(NC(=O)c2cc(S(=O)(=O)N3CCOCC3)ccc2OC)cc1`, the activation is inactive: -12.3%.

In the case of `COc1cc(Cl)c(C)cc1NC(=O)C1CCN(c2nc3ccccc3n3cccc23)CC1`, the activation was inactive: -27.8%.

For `Cc1ccc(C)c(NC(=O)N2CCN(C(=O)c3nsc4ccccc34)CC2)c1`, the activation was inactive: -6.33%.

As to `COc1ccc(S(=O)(=O)Nc2cccc(-c3ccc(N4CCCC4)nn3)c2)c(OC)c1`, the activation is inactive: -5.47%.

For the compound `COc1ccc(OC)c(NS(=O)(=O)c2ccc3c(c2)C(C)(C)C(=O)N3C)c1`, the activation was inactive: -6.53%.

With `NC(=O)C1CCN(C(=O)c2ccc(NC(=O)c3nsc4ccccc34)cc2)CC1`, the activation was inactive: 1.97%.

As for `CCOc1ccccc1N(CC)C(=O)Cn1ncc2c([nH]c3ccccc32)c1=O`, the activation is inactive: 16.3%.

Regarding `COc1ccc(CNC(=O)c2cc3cc4cc(OC)ccc4nc3o2)cc1`, the activation is inactive: -4.28%.

On to `COc1cccc(CNC(=O)c2ccc3c(c2)c(C)c(C)n3Cc2ccccc2)c1`, for which the activation was inactive: -14.7%.

On to `Cc1nnc(N2CCC(C(=O)NC3CCCCC3)CC2)c2nn(-c3ccccc3)c(C)c12`, for which the activation is inactive: -14.6%.

In the case of `Clc1cccc(-c2ccc(CNCCSc3nnnn3-c3ccccc3)o2)c1`, the activation was inactive: 14.6%.

With `CC(=O)c1ccc(NC(=O)c2nc3ccccc3nc2N2CCCCC2)cc1`, the activation was inactive: -37.4%.

Consider `O=C(c1ccccc1)N1CCN(CCc2ccncc2)CC1`, for which the activation was inactive: -3.09%.

Regarding `CCOC(=O)c1[nH]c(C)c(CCC(=O)N2CCN(c3cccc(OC)c3)CC2)c1C`, the activation is inactive: -9.83%.

For `CCCCN(CC)C(=O)CSc1nc2n[nH]c(C)c2c(=N)n1-c1cccc(Cl)c1`, the activation is inactive: -17.4%.

Consider `CCC(=O)N1CCc2cc(Br)cc(S(=O)(=O)CCC(=O)NCc3ccccc3OC)c21`, for which the activation was inactive: -13.3%.

In the case of `CCOc1ccc(NC(=O)Cn2ncc3c2-c2cc(C)ccc2OC3)cc1`, the activation was inactive: -1.25%.

Regarding `Cc1ccc(NC(=O)Cc2ccc(-n3c(C)nc4cccnc43)cc2)c(Cl)c1`, the activation was inactive: 33.9%.

In the case of `Cc1ccc(-c2noc(-c3ccccc3NC(=O)c3ccccc3)n2)cc1`, the activation is inactive: 2.77%.

Consider `Cc1ccc(CNC(=O)C(=O)Nc2c3c(nn2-c2ccccc2)CSC3)cc1`, for which the activation is inactive: -14%.

For `COc1ccccc1C(=O)NCCn1cc(SCC(=O)Nc2ccccc2F)c2ccccc21`, the activation was inactive: 37.4%.

For `COc1ccc(CCNC(=O)C(=O)Nc2ccccc2F)cc1`, the activation is inactive: -1.58%.

As to `CC1CCN(S(=O)(=O)c2ccc3c(c2)N(CC(=O)NC(C)c2ccccc2)C(=O)CS3)CC1` (centres undefined), the activation was inactive: -1.13%.

Regarding `O=C(NCc1ccccc1)c1ccc(CNS(=O)(=O)c2ccc(Br)cc2)cc1`, the activation is inactive: 6.88%.

`COc1ccccc1CNS(=O)(=O)c1ccc2c(c1)CC(C)N2C(C)=O` (centres undefined): the activation was inactive: 40.3%.

As for `Cc1ccc(C)c(N2CCN(S(=O)(=O)c3ccc4[nH]c5c(c4c3)CCCCC5)CC2)c1`, the activation was inactive: -9.85%.

As for `CC(C)Cn1cc(NC(=O)N2CCN(c3cccc(Cl)c3)CC2)c2ccccc2c1=O`, the activation was inactive: -52%.

Take `COc1cc(Cl)c(S(=O)(=O)NCCc2c(C)[nH]c3c(C)cccc23)cc1Cl`: the activation is inactive: 4.81%.

Regarding `CCc1ccc(NC(=O)N2CCOc3ccc(Cl)cc32)cc1`, the activation was inactive: -13%.

Take `Cc1ccc(-c2nc(NC(=O)CSc3cc(C)c4ccccc4n3)ns2)cc1`: the activation is inactive: 1.74%.

As to `Cc1cc(C)c(NC(=O)c2cc(S(=O)(=O)N3CCC4(CC3)OCCO4)ccc2F)c(C)c1`, the activation is inactive: -9.52%.

For the compound `COC(=O)c1ccc(NC(=O)CC2C(=O)N(c3cccc(OC)c3)C(=O)N2Cc2cccs2)cc1` (centres undefined), the activation is inactive: -26.2%.

Turning to `O=C(O)c1cc(=O)c2ccccc2o1`, the activation was inactive: -27.2%.

Regarding `COC(=O)c1cc2oc3ccccc3c2n1Cc1nc(-c2ccc(Cl)cc2)oc1C`, the activation is inactive: -5.1%.

Regarding `CCN(C(=O)Cn1nnc2sc3c(c2c1=O)CCC(C(C)(C)C)C3)c1cccc(C)c1` (centres undefined), the activation was inactive: -20.4%.

On to `CCCCn1c(SCC(=O)c2ccccc2)nc2c(sc3ccccc32)c1=O`, for which the activation is inactive: 8.92%.

`Cc1nc2c(-c3ccc(F)cc3)c(C)nn2c(C)c1CCC(=O)N1CCN(c2ccccc2)CC1`: the activation was inactive: -6.06%.

In the case of `CCc1ccc(CNC(=O)c2nn(-c3ccc(C)cc3)c(=O)c3c2c2ccccc2n3C)cc1`, the activation is inactive: -8.66%.

In the case of `COc1cc(CCC(=O)NCc2ccc3c(c2)CCN3C(=O)c2ccccc2)cc(OC)c1OC`, the activation is inactive: 1.47%.

For `CC(=O)c1ccc(N2CCN(C(=O)C3CCCN(S(=O)(=O)c4ccc(Br)s4)C3)CC2)cc1` (centres undefined), the activation is inactive: 25.5%.

In the case of `CCC1CN(S(=O)(=O)c2cc(-c3cc(C)no3)ccc2C)c2cc(C)ccc2O1` (centres undefined), the activation was inactive: 6.23%.

As for `Cc1ccc(-n2nc3ccc(NC(=O)COc4ccccc4C)cc3n2)cc1`, the activation is inactive: 20.3%.

As for `Cc1ccc(-c2nnc(Nc3cccc(Cl)c3)c3ccccc23)cc1S(=O)(=O)N1CCCCC1`, the activation is inactive: -29.9%.

Regarding `Cc1ccc(-n2nc(CO)c(C(=O)NCCCCc3ccccc3)n2)cc1C`, the activation was inactive: -23.8%.

As for `CSc1ccc(CCNC(=O)c2cc(C)nc3c2c(C)nn3-c2ccccc2)cc1`, the activation is inactive: -14.3%.

Consider `COc1ccc(-c2nnc(SCC(=O)NCCc3ccc(OC)c(OC)c3)nc2-c2ccc(OC)cc2)cc1`, for which the activation was inactive: -24.7%.
